The list shows a part of the results.

The experiment has as its target T1, MBP-FoxP1dN (Mus musculus, UniProt P58462 326-579).
T1 sequence: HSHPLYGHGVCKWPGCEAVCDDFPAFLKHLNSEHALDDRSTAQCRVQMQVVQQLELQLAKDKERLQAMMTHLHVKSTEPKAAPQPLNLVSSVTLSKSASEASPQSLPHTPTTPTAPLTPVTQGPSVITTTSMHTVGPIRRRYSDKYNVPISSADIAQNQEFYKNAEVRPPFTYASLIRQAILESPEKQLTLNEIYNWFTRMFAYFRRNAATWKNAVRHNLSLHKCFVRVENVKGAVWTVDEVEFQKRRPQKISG
The experiment is described as follows: PD-seq (MBP pull-down with sequencing); 20 mM Tris-HCl pH 7.5, 100 mM NaCl, 1.5 mM MgCl2, 0.4 uM protein, 0.1 uM dsDNA library, 30 min, room temperature, amylose pull-down; high values mean tight binding. The conditions noted are these: protein: recombinant; tags: His6-MBP; chain copies: 2; dsDNA, one strand shown. The gist of the method: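 Protein and DNA were mixed at 0.4 µM and 0.1 µM and held for 30 min at room temperature in Tris pH 7.5 buffer with NaCl and MgCl2; the protein was a His6-MBP-tagged, N-terminally truncated mouse FoxP3 or FoxP1 fragment from E. coli, and the DNA a Klenow-filled double-stranded degenerate library. Amylose resin captured the complexes, which were washed three times. Binding is read as reads-per-million enrichment of pull-down versus input after Illumina sequencing, with replicates pooled.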
As to “GATGATTGTTCTCCCAGCTGATGAATTTCAGACGTCGAGTAAACAAATTTTCCTAATCTTTCTGTTCAAGCGCCATCTAC”, the binding signal is 0.832 RPM ratio (pull-down/input).
With “GATGATTGTTCTCCCAGCTGATGAATTACCTCCTTCGAGTAAACAAATTTTCCTAATCTTTCTGTTCAAGCGCCATCTAC” the figure was 0.955 RPM ratio (pull-down/input); with “GATGATTGTTCTCCCAGCTGATGAATTGGACTTATCGAGTAAACAAATTTTCCTAATCTTTCTGTTCAAGCGCCATCTAC”, 0.864 RPM ratio (pull-down/input); with “GATGATTGTTCTCCCAGCTGATGAATTGGATTAATCGAGTAAACAAATTTTCCTAATCTTTCTGTTCAAGCGCCATCTAC”, 0.97 RPM ratio (pull-down/input).
The same measure for “GATGATTGTTCTCCCAGCTGATGAATTCCACTTTTCGAGTAAACAAATTTTCCTAATCTTTCTGTTCAAGCGCCATCTAC”: 0.903 RPM ratio (pull-down/input); for “GATGATTGTTCTCCCAGCTGATGAATTTCTCCGCTCGAGTAAACAAATTTTCCTAATCTTTCTGTTCAAGCGCCATCTAC”: 0.834 RPM ratio (pull-down/input); for “GATGATTGTTCTCCCAGCTGATGAATTTGTTCGTTCGAGTAAACAAATTTTCCTAATCTTTCTGTTCAAGCGCCATCTAC”: 1.12 RPM ratio (pull-down/input).
“GATGATTGTTCTCCCAGCTGATGAATTATGTCGATCGAGTAAACAAATTTTCCTAATCTTTCTGTTCAAGCGCCATCTAC”: the binding signal is 1.01 RPM ratio (pull-down/input).
With “GATGATTGTTCTCCCAGCTGATGAATTCTGGAGATCGAGTAAACAAATTTTCCTAATCTTTCTGTTCAAGCGCCATCTAC” the figure was 0.812 RPM ratio (pull-down/input); with “GATGATTGTTCTCCCAGCTGATGAATTCGACATCTCGAGTAAACAAATTTTCCTAATCTTTCTGTTCAAGCGCCATCTAC”, 0.877 RPM ratio (pull-down/input).
With “GATGATTGTTCTCCCAGCTGATGAATTGTGTCGCTCGAGTAAACAAATTTTCCTAATCTTTCTGTTCAAGCGCCATCTAC” the figure was 1.08 RPM ratio (pull-down/input).
For “GATGATTGTTCTCCCAGCTGATGAATTCGGGCAATCGAGTAAACAAATTTTCCTAATCTTTCTGTTCAAGCGCCATCTAC”, the binding signal was 1.01 RPM ratio (pull-down/input).
On to “GATGATTGTTCTCCCAGCTGATGAATTTGTTAATTCGAGTAAACAAATTTTCCTAATCTTTCTGTTCAAGCGCCATCTAC”, for which the binding signal was 1.38 RPM ratio (pull-down/input).
Consider “GATGATTGTTCTCCCAGCTGATGAATTTCAACTCTCGAGTAAACAAATTTTCCTAATCTTTCTGTTCAAGCGCCATCTAC”, for which the binding signal was 0.737 RPM ratio (pull-down/input).
The same measure for “GATGATTGTTCTCCCAGCTGATGAATTAAACCCATCGAGTAAACAAATTTTCCTAATCTTTCTGTTCAAGCGCCATCTAC”: 1.02 RPM ratio (pull-down/input); for “GATGATTGTTCTCCCAGCTGATGAATTTTGCAGTTCGAGTAAACAAATTTTCCTAATCTTTCTGTTCAAGCGCCATCTAC”: 0.964 RPM ratio (pull-down/input).
The same measure for “GATGATTGTTCTCCCAGCTGATGAATTCATAGGTTCGAGTAAACAAATTTTCCTAATCTTTCTGTTCAAGCGCCATCTAC”: 0.826 RPM ratio (pull-down/input); for “GATGATTGTTCTCCCAGCTGATGAATTCAAGCTTTCGAGTAAACAAATTTTCCTAATCTTTCTGTTCAAGCGCCATCTAC”: 0.905 RPM ratio (pull-down/input); for “GATGATTGTTCTCCCAGCTGATGAATTTCATTTCTCGAGTAAACAAATTTTCCTAATCTTTCTGTTCAAGCGCCATCTAC”: 0.901 RPM ratio (pull-down/input).
With “GATGATTGTTCTCCCAGCTGATGAATTGCGGGTGTCGAGTAAACAAATTTTCCTAATCTTTCTGTTCAAGCGCCATCTAC” the figure was 0.984 RPM ratio (pull-down/input); with “GATGATTGTTCTCCCAGCTGATGAATTAGGCGTCTCGAGTAAACAAATTTTCCTAATCTTTCTGTTCAAGCGCCATCTAC”, 0.865 RPM ratio (pull-down/input).
For the sequence “GATGATTGTTCTCCCAGCTGATGAATTTTGGTGCTCGAGTAAACAAATTTTCCTAATCTTTCTGTTCAAGCGCCATCTAC”, the binding signal was 0.883 RPM ratio (pull-down/input).
Regarding “GATGATTGTTCTCCCAGCTGATGAATTTCTCGAATCGAGTAAACAAATTTTCCTAATCTTTCTGTTCAAGCGCCATCTAC”, the binding signal is 0.934 RPM ratio (pull-down/input).
With “GATGATTGTTCTCCCAGCTGATGAATTATTATAGTCGAGTAAACAAATTTTCCTAATCTTTCTGTTCAAGCGCCATCTAC” the figure was 1.17 RPM ratio (pull-down/input).
In the case of “GATGATTGTTCTCCCAGCTGATGAATTAGCTGTATCGAGTAAACAAATTTTCCTAATCTTTCTGTTCAAGCGCCATCTAC”, the binding signal is 1.04 RPM ratio (pull-down/input).
“GATGATTGTTCTCCCAGCTGATGAATTTATGACGTCGAGTAAACAAATTTTCCTAATCTTTCTGTTCAAGCGCCATCTAC”: the binding signal was 1.14 RPM ratio (pull-down/input).
With “GATGATTGTTCTCCCAGCTGATGAATTCATACTTTCGAGTAAACAAATTTTCCTAATCTTTCTGTTCAAGCGCCATCTAC” the figure was 0.982 RPM ratio (pull-down/input); with “GATGATTGTTCTCCCAGCTGATGAATTGTATAGGTCGAGTAAACAAATTTTCCTAATCTTTCTGTTCAAGCGCCATCTAC”, 1 RPM ratio (pull-down/input); with “GATGATTGTTCTCCCAGCTGATGAATTCCAATCATCGAGTAAACAAATTTTCCTAATCTTTCTGTTCAAGCGCCATCTAC”, 0.962 RPM ratio (pull-down/input).
With “GATGATTGTTCTCCCAGCTGATGAATTGACAATGTCGAGTAAACAAATTTTCCTAATCTTTCTGTTCAAGCGCCATCTAC” the figure was 1.32 RPM ratio (pull-down/input); with “GATGATTGTTCTCCCAGCTGATGAATTCGGTGTCTCGAGTAAACAAATTTTCCTAATCTTTCTGTTCAAGCGCCATCTAC”, 0.857 RPM ratio (pull-down/input); with “GATGATTGTTCTCCCAGCTGATGAATTCGACGGATCGAGTAAACAAATTTTCCTAATCTTTCTGTTCAAGCGCCATCTAC”, 0.799 RPM ratio (pull-down/input).
Consider “GATGATTGTTCTCCCAGCTGATGAATTCGAATCCTCGAGTAAACAAATTTTCCTAATCTTTCTGTTCAAGCGCCATCTAC”, for which the binding signal was 0.802 RPM ratio (pull-down/input).
In the case of “GATGATTGTTCTCCCAGCTGATGAATTTTGTGGTTCGAGTAAACAAATTTTCCTAATCTTTCTGTTCAAGCGCCATCTAC”, the binding signal is 1.21 RPM ratio (pull-down/input).
With “GATGATTGTTCTCCCAGCTGATGAATTACTTGATTCGAGTAAACAAATTTTCCTAATCTTTCTGTTCAAGCGCCATCTAC” the figure was 1.12 RPM ratio (pull-down/input); with “GATGATTGTTCTCCCAGCTGATGAATTCGTGCGCTCGAGTAAACAAATTTTCCTAATCTTTCTGTTCAAGCGCCATCTAC”, 0.833 RPM ratio (pull-down/input).
The same measure for “GATGATTGTTCTCCCAGCTGATGAATTGCGCGACTCGAGTAAACAAATTTTCCTAATCTTTCTGTTCAAGCGCCATCTAC”: 1.05 RPM ratio (pull-down/input).
Take “GATGATTGTTCTCCCAGCTGATGAATTGTACCCTTCGAGTAAACAAATTTTCCTAATCTTTCTGTTCAAGCGCCATCTAC”: the binding signal was 0.979 RPM ratio (pull-down/input).
The same measure for “GATGATTGTTCTCCCAGCTGATGAATTCTACGCGTCGAGTAAACAAATTTTCCTAATCTTTCTGTTCAAGCGCCATCTAC”: 0.902 RPM ratio (pull-down/input); for “GATGATTGTTCTCCCAGCTGATGAATTAGTGCTCTCGAGTAAACAAATTTTCCTAATCTTTCTGTTCAAGCGCCATCTAC”: 0.89 RPM ratio (pull-down/input).

Source of the values: PMC12820563, “FoxP3 forms a head-to-head dimer in vivo and stabilizes its multimerization on adjacent microsatellites”.
